The source gives no read counts; variants with many changes may rest on few reads.

B1: CPEB3 Ribozyme (parent)
chain: UAACAGGGGGCCACAGCAGAAGCGUUCACGUCGCAGCCCCUGUCAGAUUCUGGUGAAUCUGCGAAUUCUGCUGUAUAUCUC

The data set covers variants of B1. The experiment in a line: self-cleavage, relative activity (ratio to wild type); higher = more cleavage; in vitro, sequencing. In a few lines:
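CPEB3 self-cleaving ribozyme mutant libraries were made by rounds of error-prone PCR, barcoded, and transcribed in vitro with T7 RNA polymerase for 5 hours at 37°C. Cleavage occurred during transcription and a 15 min DNase I step before EDTA stop. RNAs were reverse transcribed with template switching and Illumina-sequenced, with DNA sequencing mapping barcodes to variants. Relative activity is the variant's cleaved/total read fraction divided by wild type's (minimum 5 reads), averaged across three batches.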
As to A18U U41C A64G A77U, the self-cleavage came to 0.4.

For A18U A57G U60C, the self-cleavage stood at 0.19. Then A18U U26C C39G U43C U54C, with 0.17.

Regarding A18U A64G G70A U80C, the self-cleavage worked out at 0.17.

With A18U G24A U43C, the self-cleavage came out at 0.19.

Regarding A18U C40A C62U U69C U80A, the self-cleavage came out at 0.17.

In the case of A18U U25C U41C U78C, the self-cleavage was determined as 0.09. With A18U C34A U41C the figure was 0.22.

A18U U31A U41A U54C U74C: the self-cleavage turned out to be 0.11. Then A18U U31C A47G, with 0.29; and A18U A47G U48A A64U U78A, with 0.15; and A18U G19U U69C A75U, with 0.11. Then A18U A57C G63A A65U, with 0.12. Take A18U U31C U54C A56G: the self-cleavage came out at 0.28.

With A18U U26C A65G, the self-cleavage is 0.3. Turning to A18U A45G U49A, the self-cleavage was determined as 0.46. Then A18U C23A U69A, with 0.16. Regarding A18U U41C C62A, the self-cleavage was determined as 0.17.

For the variant A18U U25C A45U A65U U76G, the self-cleavage was 0.05.

A18U U26C U31C U67G U76C: the self-cleavage is 0.12. As for A18U C32G C40A U60A U72A, the self-cleavage was determined as 0.07. With A18U U43C U51A G61A the figure was 0.4. Then A18U G22C C59A, with 0.08; and A18U G22C C39U U43C U51A A57G U78C, with 0.05; and A18U U31G U43A U54A U78C, with 0.16. In the case of A18U U25C A28C, the self-cleavage was found to be 0.31. With A18U U25C U58C U76A the figure was 0.08; with A18U C34U U41A A56G, 0.17; with A18U U43A A57C G70A U74C, 0.13. With A18U G24U C37U U41C, the self-cleavage is 0.16. With A18U G30U U78C the figure was 0.17. Then A18U A57G A75U, with 0.14. On to A18U C39A U49C, for which the self-cleavage was found to be 0.07. Then A18U G36U U54A A57U U60C U66C, with 0.05. Then A18U U25C C29G U80C, with 0.21; and A18U C23G U41C A45G U60C A65G, with 0.05; and A18U U43A U54C, with 0.43.

On to A18U U51C U58A, for which the self-cleavage came out at 0.24.

As for A18U U43C A47G, the self-cleavage came out at 0.46. With A18U U43C C62U the figure was 0.3. As for A18U U26C U66C, the self-cleavage came out at 0.19.

Turning to A18U U25C A35G U80C, the self-cleavage was determined as 0.43. Consider A18U U51A U66C U78C, for which the self-cleavage was 0.32. Then A18U C37G U49A U54C U58C A77C, with 0.06; and A18U U26C C32G A47G U48C U72A, with 0.14; and A18U G33U U54C U67A U69A, with 0.07.

A18U C27U A35G: the self-cleavage worked out at 0.13. With A18U A45G C50U U60A the figure was 0.13. Then A18U U26A C29U U43A, with 0.29.

Regarding A18U G19U C37U, the self-cleavage was found to be 0.12.

In the case of A18U C40A U43C, the self-cleavage came out at 0.08. As to A18U U43A A56U U72A, the self-cleavage was found to be 0.13. Turning to A18U U51A A56G, the self-cleavage worked out at 0.25. Then A18U U26A A28U C32A U54C U76G C81U, with 0.05.

Turning to A18U U26C U69A, the self-cleavage is 0.58. Consider A18U U25A A35G U78C, for which the self-cleavage was found to be 0.19.

For the variant A18U G19U A28G A45C U51A, the self-cleavage worked out at 0.15.

A18U A56G U60C G73U: the self-cleavage is 0.12. As to A18U U25C C81A, the self-cleavage is 0.19. With A18U G22U U43C U78C the figure was 0.14; with A18U U25C C50A U54A U67C U72A, 0.1.

Regarding A18U U41G U78A, the self-cleavage was 0.07. A18U U26C U48C: the self-cleavage amounted to 0.3. For A18U U25A A28G, the self-cleavage worked out at 0.25. For A18U A45G A64G, the self-cleavage amounted to 0.44.

In the case of A18U A47G U69A U72C, the self-cleavage came out at 1.26. Then A18U C40U G61A U69A, with 0.28.

Take A18U U41C A75G: the self-cleavage stood at 0.57. With A18U U41C A75U the figure was 0.32.

Consider A18U C34G U48C U74A, for which the self-cleavage worked out at 0.05. Then A18U U25C U41A U48C U58C, with 0.24. A18U U48C U51C A56C A65G: the self-cleavage was 0. With A18U U26A A45U U80C, the self-cleavage was found to be 0.29. As for A18U C32A U78C U80C, the self-cleavage turned out to be 0.14.

On to A18U U26A U58C U69C U80A, for which the self-cleavage turned out to be 0.11. Regarding A18U A45G A56G, the self-cleavage turned out to be 0.25. Then A18U U25A U54C G63U C68U, with 0.18; and A18U U31C A35U A64U, with 0.17; and A18U U26C U43C U69A A75C, with 1.05. Then A18U A56U U69A, with 1.09; and A18U G33A A35G A64U A75G U78A, with 0.05; and A18U U31A A35C U72A, with 0.1. On to A18U G33U U54C A77U U80C, for which the self-cleavage worked out at 0.1. Then A18U U26C G30A A35U U60A, with 0.06.

A18U U26A U43C U51C U69A U72C: the self-cleavage stood at 0.26. For the variant A18U U25C A35G U43C A45G, the self-cleavage turned out to be 0.12. Then A18U U41C A65U U67C, with 0.15; and A18U C23U C32U U49A C50G A64C U80C, with 0.04.

In the case of A18U U49A U60C, the self-cleavage came to 0.2. As for A18U G30A G36U C79G, the self-cleavage was determined as 0.1. Then A18U U43C A45G, with 0.19; and A18U U26C G46U A57G, with 0.06. Then A18U G55U U80C, with 0.37; and A18U A45U A47G U69A, with 0.54. With A18U U41A U67A U69A U80C, the self-cleavage was found to be 0.11. A18U U26C U49A A57G U58G U72C: the self-cleavage stood at 0.06. With A18U U26C U48C U51C U67C U69C the figure was 0.06; with A18U U26A A47G U54C U58C C71A, 0.07. As for A18U U31C U43A, the self-cleavage was found to be 0.24. With A18U A56G A75G U76A the figure was 0.2; with A18U U25A U41G, 0.09. With A18U U41C A56G A65U, the self-cleavage came out at 0.35. With A18U U25C C29U U41C A56U U76A the figure was 0.17; with A18U U31A U67C, 0.11; with A18U G19A U25C U67A U76C, 0.16. With A18U C40U C62U U66C the figure was 0.13. In the case of A18U G33C U60C, the self-cleavage is 0.14.

Take A18U U41C U51G A65G: the self-cleavage amounted to 0.22.

Turning to A18U C27G A35G, the self-cleavage worked out at 0.16.

Take A18U C62A U78C: the self-cleavage turned out to be 0.19. With A18U A45U A64G the figure was 0.14; with A18U A45U A64U, 0.18; with A18U U26C C37U U54C U72A U74C, 0.04. With A18U U31C A57G the figure was 0.16; with A18U A45U G70A U78C, 0.11. Then A18U U43C U58A U66A, with 0.07. Turning to A18U G19U U26C, the self-cleavage is 0.16. Turning to A18U U43G U60C A64G U78A U80A, the self-cleavage came to 0.22. Take A18U G36A U48C: the self-cleavage stood at 0.16.

In the case of A18U U41C G61A U69G C79U, the self-cleavage worked out at 0.85. Then A18U U41C A47G, with 0.24. With A18U G55U A75G the figure was 0.41. With A18U C38U U43A the figure was 0.28.

In the case of A18U C29U A35U U51C, the self-cleavage amounted to 0.08. In the case of A18U A45G U60A A64G U66A, the self-cleavage came to 0.4. With A18U U25C A35U A64G the figure was 0.11. As to A18U U41C A47G U51A U69C, the self-cleavage is 0.29. With A18U U41A A47G U54C U67A the figure was 0.05; with A18U U25C U72A G73A, 0.22; with A18U U31C C32G U41A U60A C81A, 0.05.

In the case of A18U U25C A28U U43C A45U A47G A64U, the self-cleavage was 0.06.

On to A18U G63A A65G U69C A77U, for which the self-cleavage was determined as 0.16. Then A18U A45G A47U U49A, with 0.28.

Take A18U C32A A45G U51C: the self-cleavage was 0.34. Then A18U G24U C37U U41C U60A, with 0.18.

For A18U U25C G36A, the self-cleavage came to 0.2. In the case of A18U G33A U51C, the self-cleavage amounted to 0.1. Consider A18U U25C A56G C68A U72A, for which the self-cleavage was 0.12. As to A18U U25C U49C U67C, the self-cleavage was found to be 0.14. With A18U U31A A45G U66A A77G, the self-cleavage worked out at 0.07. Turning to A18U U41C U67C, the self-cleavage is 0.26.

For the variant A18U A56U G63C U76A, the self-cleavage came to 0.15. With A18U U26A U76C U80A the figure was 0.43. With A18U G36A A56G U60C the figure was 0.08; with A18U U26C U31C A56G, 0.23.

In the case of A18U U26C U51A U69C, the self-cleavage turned out to be 0.17.

Consider A18U A47C A56G, for which the self-cleavage worked out at 0.16. With A18U U41C U54A A56G A57G U60A A64G the figure was 0; with A18U G33U U67C, 0.12; with A18U C32U C68A, 0.08. With A18U U26A A57G the figure was 0.19; with A18U U51C A56U, 0.19. With A18U C34U C38U U67C U69A U76C the figure was 0.06; with A18U A65G U72C, 0.38. Take A18U U25C U54C U58A U69A: the self-cleavage was found to be 0.09. With A18U A57G U72C the figure was 0.19. As for A18U U31A A77G, the self-cleavage is 0.08. With A18U A47G C62U A75G the figure was 0.18; with A18U U26C U69A C81U, 0.47; with A18U A45U U69C, 0.19.

Consider A18U U26A U74A, for which the self-cleavage was 0.52. Take A18U U31C C40A U69C: the self-cleavage amounted to 0.13. Consider A18U U41C U66C A75C, for which the self-cleavage came to 0.17. With A18U U26C U67C the figure was 0.22; with A18U U26A A28G C40U G63A A75C, 0.06; with A18U U25A A57G A64G C71U U72C, 0.04. On to A18U U43G G53A A65G G73A, for which the self-cleavage stood at 0.05.

The values are drawn from the RNAGym collection of RNA variant scans (doi:10.1093/nar/gkz1192).
